The values below come from PubChem BioAssay (NCI).

Values joined by “and” are separate entries in the source; they are usually repeats but may differ in a detail not shown here. Identical values can stand only once.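 These data come from cells grown in 96-well plates and exposed to compound for 48 hours at five concentrations. GI50 marks 50% less growth. TGI: total growth inhibition.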

The experiment concerns NCI-H322M lung. Put plainly: NCI-60 cell line screen, 48 h.
On to `CCCNC(=O)CCC(C)C1CCC2C3C(C[C@H](OC(C)=O)[C@]12C)[C@@]1(C)CCC2(C[C@H]1C[C@H]3OC(C)=O)OOC1(CC[C@]3(C)C4C[C@H](OC(C)=O)[C@]5(C)C(C(C)CCC(=O)NCCC)CCC5C4[C@H](OC(C)=O)C[C@@H]3C1)OO2` (stereo partly drawn), for which the TGI is > 100 µM. `C=CCOC(=O)NC1C(OC(C)[C@@H](NC(=O)OCc2ccccc2)C(=O)OC(C)(C)C)OC(COC(C)=O)C(OC(C)=O)C1OC(C)=O` (stereo partly drawn): the TGI was > 100 µM. Still for that read-out and setting: the same measure for `COc1cc2c(cc1OCCCCN1C(=O)c3cccc4cccc(c34)C1=O)N=C[C@@H]1CCCN1C2=O`: 46 µM. In the case of `O=C(N/C(=C/c1ccc(Cl)cc1Cl)c1nc2ccccc2s1)c1ccccc1`, the TGI came to 33.7 µM. Take `O=c1[nH]nc2ccccc2c1Cc1ccccc1`: the TGI is > 100 µM. `O=c1ccn([C@@H]2C[C@@H]2CO)c(=O)[nH]1`: the TGI is > 100 µM.

`OCC1C(/C=C/c2ccoc2)ON2CCCC12` (stereo not drawn): the TGI was > 100 µM.

With `COc1cccc(C2=C(c3c(C)n(C)c4ccccc34)C(=O)NC2=O)c1`, the GI50 is > 25 µM and the TGI was > 25 µM. `Nc1cccc(/C=C/C(=O)N2CCN(CCOC(c3ccccc3)c3ccccc3)CC2)c1` registered a TGI of 30.1 µM.

`CC1=CC(=O)c2ccccc2C1=O`: the TGI turned out to be 28.6 µM. `COc1cc2oc3cc(=O)cc4oc(-c5ccccc5)cc(c2c2c1CCC(c1ccccc1)O2)c43` (stereo not drawn): the TGI was > 100 µM.

For `COc1cccc2c1C(=O)c1c(O)c3c(c(O)c1C2=O)CC(O)(C(O)CO)CC3OC1CC(N2CCOCC2)C(O)C(C)O1` (stereo not drawn), the GI50 was 0.0146 µM; the TGI is 0.0272 µM and 0.0678 µM. Regarding `CC1CN(c2ccc(Cl)cc2)CC(C)OC(=O)O1` (stereo not drawn), the TGI is > 100 µM. The compound `CC(C)(C)c1cc(C2=NNC(c3ccccc3)C2)cc(C(C)(C)C)c1O` (stereo not drawn) gave a TGI of 55.3 µM. As to `Cc1cn(C2CC(O)C(COC(=O)NCCC(F)(F)C(F)(F)C(F)(F)C(F)(F)F)O2)c(=O)[nH]c1=O` (stereo not drawn), the TGI was > 100 µM. Compound `C=CCc1cccc2cc(C(=O)Nc3ccccc3)c(=N)oc12` returned a TGI of 31.8 µM. Take `CC1CC2OC(=O)C(C)C2CC2(C)C(OC3OC(CO)C(O)C(O)C3O)OCCC12` (stereo not drawn): the TGI was > 100 µM. For `CN(C)CCNC(=O)c1cc([N+](=O)[O-])cc2c1Oc1ccccc1O2`, the TGI is > 100 µM.

In the case of `N.N.N.N.N.[Cl-].[Co+3].c1ccc(-c2nn[n-]n2)cc1`, the GI50 was > 100 µM and the TGI was > 100 µM. As to `CCOC(=O)c1cn2c(n1)sc1c(Cl)c(Cl)ccc12`, the TGI is > 100 µM.

As to `NCCSC(c1ccccc1)c1ccccc1`, the TGI came to 48.9 µM. The same measure, in the same setting: the same measure for `CCOP(=O)(OCC)C(C)(CC)N/C(=N/C(NC(C)=O)(C(F)(F)F)C(F)(F)F)NC1=NC(C(F)(F)F)(C(F)(F)F)N=C(C(F)(F)F)O1` (stereo not drawn): > 100 µM. For the compound `C=CCC1(OC(C)=O)C2OC(=O)C1(O)OCC2O` (stereo not drawn), the TGI is > 100 µM. On to `O=C(c1ccc(Cl)cc1)N(C(=O)N1CCC(c2ccccc2)CC1)c1ccccc1`, for which the TGI was > 100 µM. For `CCN(CC)CCOc1ccc(CCc2cc(OC)c(OC)c(OC)c2)cc1`, the TGI is > 100 µM.

With `COc1cc2c3c(n(CCCCN)c(=O)c2cc1OC)-c1cc2c(cc1C3=O)OCO2`, the GI50 is 2.85 µM and the TGI stood at 8.58 µM. `COC(=O)c1sc(=S)sc1SCc1ccc(CSc2sc(=S)sc2C(=O)OC)cc1`: the TGI is > 100 µM. Regarding `COc1cccc2c1ccc1nc3cccc(C(=O)N[C@H](C)CN(C)C)c3nc12`, the GI50 was 0.0919 µM and the TGI came to 3.82 µM. Turning to `[N-]=[N+]=CC(=O)c1ccccc1C#CCCc1ccccc1`, the TGI is > 100 µM. On to `CC1(N)CCN(c2cccnc2NC(=O)c2nc(-c3ncccc3C(F)(F)F)cnc2N)CC1`, for which the GI50 was 55.6 µM and the TGI was > 100 µM. Turning to `O=c1ccn(C2CC(O)C(CO)O2)c(=O)[nH]1` (stereo not drawn), the GI50 was > 5000 µM and the TGI was > 5000 µM.

For the compound `Cc1cc(O)c(C2=NN(c3ccc(S(N)(=O)=O)cc3)C(c3ccccc3Cl)C2)cc1Cl` (stereo not drawn), the GI50 is 2.19 µM and the TGI amounted to 5.07 µM.

As for `COc1c(O)cc2oc(-c3ccc(O)cc3)cc(=O)c2c1O`, the TGI was > 100 µM.

`CC1=NN(c2nc(N)nc(CSc3nc4n(c(=S)n3)CCN4)n2)C(C)(C)C1` displayed a TGI of 89.6 µM. With `O=C1CSC(c2ccc([N+](=O)[O-])cc2)N1c1ccc(-n2c(-c3ccccc3)nc3ccccc3c2=O)cc1` (stereo not drawn), the TGI was > 100 µM. As for `CC(C)(C)OC(=O)N1CCC(C(=O)O)CC1`, the TGI is > 100 µM.

For the compound `O=CN/C=C/c1cccc(O)c1`, the TGI was > 95.7 µM. As for `COc1cccc(-n2nc(C)c3c(N/N=C(\C)c4ccncc4)ncnc32)c1`, the GI50 was > 25 µM and the TGI is > 25 µM. As to `Nc1nc(N)c2nc(CNc3ccc(C(=O)NC(CC(=O)O)C(=O)O)cc3)cnc2n1` (stereo not drawn), the GI50 is 0.763 µM and the TGI is > 45.3 µM. Take `CCCc1cc(=O)[nH]c(-n2nc(C)cc2C)n1`: the GI50 was 2.75 µM and the TGI came to 57.7 µM. `O=C(Nc1cccc(-n2cc(-c3ccncc3)c(-c3cc(O)cc(Cl)c3)n2)c1)Nc1ccc(Cl)c(C(F)(F)F)c1`: the GI50 is 3.16 µM and the TGI came to 13 µM. Compound `Cc1c(N2C(=O)CS(=O)(=O)C2c2cccc(Oc3ccccc3)c2)c(=O)n(-c2ccccc2)n1C` (stereo not drawn) yielded a TGI of 66.7 µM. The compound `CN(C)C(=S)/N=c1\ssc(=S)n1Cc1ccccc1` registered a TGI of 41.6 µM. The same measure, in the same setting: for `O=C1Nc2nc3ccccc3n2N=C2CCCC12` (stereo not drawn) the value was > 100 µM. Consider `CC1=NN(c2cccc(Cl)c2)C2(SCC(=O)N2c2nc3ccccc3s2)/C1=C\c1cccs1` (stereo not drawn), for which the TGI was determined as 42.3 µM. `CCCCCCCCC/C=C/C=C/C(=O)NCC(=O)NC1C(O)C(O)C(Nc2ncnc3nc[nH]c23)OC1C(O)CO` (stereo not drawn) registered a TGI of 0.0317 µM.

Turning to `Cc1cc2c(C)nn(Cc3ccccc3)c2c(C(N)=O)c1C`, the TGI is > 100 µM. Consider `O=S(=O)(Nc1ccc(Br)c(Cl)c1)c1ccc(-c2cnc(C3CC3)o2)cc1`, for which the GI50 was 2.86 µM and the TGI turned out to be 22.2 µM. As to `COc1cc(CO)c(CC(=O)NCCCc2ccccc2)cc1OC`, the TGI was > 100 µM. For the compound `O=C1c2cccc(NCCN=Cc3cc([N+](=O)[O-])ccc3O)c2C(=O)c2c(NCCN=Cc3cc([N+](=O)[O-])ccc3O)cccc21`, the GI50 is 3.08 µM and the TGI is > 100 µM. `CC1CC[C@@]2(OC1)OC1C[C@H]3[C@@H]4CC=C5CC(OC6OC(CO)C(OC7OC(CO)C(O)C(OC8OCC(O)C(O)C8O)C7OC7OC(CO)C(O)C(O)C7O)C(O)C6O)CCC5(C)[C@H]4CCC3(C)C1[C@@H]2C` (stereo partly drawn) came in with a TGI of 8.61 µM. Take `COc1ccc(-c2nc(-c3ccccc3)c(-c3ccccc3)[nH]2)cc1OC1CCCC1`: the GI50 was > 100 µM and the TGI is > 100 µM.

With `Nc1nc(SCCc2ccccc2)nc2nc3c(c(-c4ccccc4)c12)CCCC3`, the TGI is > 100 µM. For `COc1cc(NC(C)CCCN)c2ncccc2c1` (stereo not drawn), the TGI is > 100 µM. Consider `COc1ccc(N=Cc2ccc(N(CCC#N)S(=O)(=O)c3ccccc3)cc2)cc1`, for which the TGI was > 100 µM. Regarding `CCC1CN(C(=O)c2ccccc2)C(Cc2c[nH]c3ccccc23)C(=O)C1CC(=O)OC` (stereo not drawn), the TGI is > 100 µM.

`CC(=O)C(=Cc1ccc(C=C(C(C)=O)C(C)=O)cc1)C(C)=O` returned a TGI of 8.37 µM. In the case of `CCC12CCCN(Cc3ccccc3)C1c1c(n(C)c3ccccc13)C(C(=O)OC)C2` (stereo not drawn), the TGI is > 239 µM.

`O=C1NC(=S)N/C1=C\c1ccc(Br)s1`: the TGI is > 100 µM. In the case of `NCCCCc1cc(O)c2c(c1O)C(=O)c1ccccc1C2=O`, the TGI is 19.2 µM.

As to `COc1nc(C#CC2(O)CCCCC2)nc(OC)n1`, the TGI worked out at 29.7 µM. For `CCOC(=O)C1=NN(c2ccc(C)cc2)C2=CC(C)=NN(C)C(=S)N21`, the TGI was > 100 µM. As for `CCN(Cc1ccc(F)cc1)c1ccc(CO)c(F)c1`, the GI50 is 23.5 µM and the TGI is > 86.1 µM. Regarding `c1csc(-c2cn3nc(-c4c[nH]c5ccccc45)sc3n2)c1`, the GI50 is 4.85 µM and the TGI was found to be 52.7 µM. For the compound `CC1OC(OC2C[C@](O)(C(=O)CF)Cc3c(O)c4c(c(O)c32)C(=O)c2ccccc2C4=O)CC(N)C1O` (stereo partly drawn), the TGI turned out to be 1.73 µM. Same read-out and setting: for `O=C(CCCN1CCC2(CC1)CC(=O)N(N1CCCCCC1)C2=O)c1ccccc1` the value was > 100 µM; for `O=C(/C=C/c1ccc(O)c(-c2cc(C(=O)/C=C/c3ccc(O)cc3)c(O)cc2O)c1)c1ccc(O)cc1O`, > 50 µM; for `COc1cc2c(ccc3c4cc(OC)c(OC)cc4c[n+](C)c23)cc1O`, > 75 µM. Regarding `CNC(=O)c1cccc2cc(Oc3ccnc4cc(OCC5(N)CC5)c(OC)cc34)ccc12`, the GI50 is 6.71 µM and the TGI is 20.2 µM. `CN(C)CCN(C)c1ccc2c(=O)n(CCN(C)C)c(=O)n3c4ccccc4c(=O)c1c23` registered a TGI of 3.82 µM. On to `O=C(CCc1ccc(O)c(O)c1)NCCc1cc(O)cc(O)c1`, for which the TGI was > 100 µM. As to `Cc1cccc(CP(Cc2cccc(C)c2)CC2(Cp3c4ccccc4c4ccccc43)COC2)c1`, the TGI is > 100 µM. On the same count and under the same terms, the same measure for `O=c1c2ccccc2c(=O)n2n1CC=CC2`: > 100 µM. On to `C1COCCN1.C1COCCN1.NC1CCCCC1N.[Cl-].[Pt+2]` (stereo not drawn), for which the GI50 is > 100 µM and the TGI is > 100 µM. Turning to `Brc1cc(CCOC2CCCCO2)c(-c2sccc2CCOC2CCCCO2)s1` (stereo not drawn), the TGI is > 100 µM. For the compound `Cc1nn(C(=O)Cc2ccccc2)c2c1C(c1ccc(O)cc1O)SC(N)=N2` (stereo not drawn), the TGI is > 100 µM. As for `Cc1ccccc1C(=O)N/N=C/c1ccc(Sc2nccn2C)c([N+](=O)[O-])c1`, the TGI was > 100 µM. On the same count and under the same terms, the same measure for `C[C@H](CCC(=O)O)[C@H]1CC[C@@]2(C)[C@@H]3C(=O)C[C@H]4C(C)(C)[C@@H](O)CC[C@]4(C)[C@H]3C(=O)C[C@]12C`: > 100 µM; for `Cc1ccc(SSc2ccc(C)cc2C(=O)O)c(C(=O)O)c1`: > 100 µM. As for `CCn1cnc(C[C@H](NC(=O)[C@@H](NC(=O)Nc2cc(C(F)(F)F)cc(C(F)(F)F)c2)C(C)C)C(=O)OC)c1`, the GI50 was 2.37 µM and the TGI is 5.95 µM. On to `Nc1ccccc1S(=O)(=O)c1ccccc1`, for which the TGI was > 100 µM. `O=C(NC(=O)c1cn(CCN(CCO)C(=O)NCCCCCCNC(=O)N(CCO)CCn2cc(C(=O)NC(=O)OCc3ccccc3)c(=O)[nH]c2=O)c(=O)[nH]c1=O)OCc1ccccc1`: the TGI is > 100 µM. Regarding `COC(=O)CC1NC(=O)[C@@H]1C(C)O` (stereo partly drawn), the TGI is > 100 µM.
